Values joined by “and” are separate entries in the source; they are usually repeats but may differ in a detail not shown here. Identical values can stand only once. Screen size: about 340,000 compounds; about 12,000 (3.5%) were called active. Inconclusive means that the source gave no clear call. Such entries were picked first, then a sample of the others. Calls come from the whole dose curve; as a rule, active = well fitted inhibition curve with a large enough effect; inconclusive = small, poorly fitted or top-dose-only effect, or another doubt; inactive = no such curve, though single readings can be large or run the other way. A potency beside an inconclusive call is a rough fit, not a confirmed value.
assay: qHTS Assay for Inhibitors of Hepatitis C Virus (HCV); settings: Huh7.5.1 HCVcc-Cre (HCVcc is cell-culture hepatitis C virus) infection, luciferase reporter, 44 h; series mostly up to 41.8 µM
Outline: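 Infectious HCV cell culture screen: compound-treated cells (1,000/well, pre-plated 4 h) are infected with HCVcc-Cre at roughly 0.5 moi and grown 44 h. Infection is quantified by luciferase signal after 15 min substrate incubation at room temperature.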
Potency is the fitted concentration of half-maximal effect; tags give direction and shape of the fitted curve.

Q: For Cc1cc2c(cc1C)N(C(=O)CSc1nncn1C)C(C)(C)c1ssc(=S)c1-2, which Potency is on record?
A: inconclusive: 8.91 µM [inhibitor, partial curve, poor fit]

Q: Which Potency does the source give for COc1ccc(N2CCN(C(=O)NC34CC5CC(CC(C5)C3)C4)CC2)cc1 here?
A: inconclusive: 14.1 µM [inhibitor, single point]

Q: Which Potency does the source give for Nc1ccc2c(c1)OC1(CCCC1)O2 here?
A: inconclusive: 0.501 µM [inhibitor, full curve, poor fit]

Q: With COc1cccc(NS(=O)(=O)c2cc(C)ccc2OC)c1 as the compound, how does the Potency read?
A: inconclusive: 25.1 µM [inhibitor, single point]

Q: With COCCn1c(SCC(=O)NC(=O)NC2CCCC2)nc2ccccc2c1=O as the compound, how does the Potency read?
A: inactive

Q: Which Potency does the source give for O=C(NNC(=O)c1ccc([N+](=O)[O-])cc1)c1ccc(Br)cc1 here?
A: inactive

Q: With Cc1cnc(C(=O)OCC(=O)c2c(N)n(CC(C)C)c(=O)n(C)c2=O)cn1 as the compound, how does the Potency read?
A: inconclusive: 31.6 µM [inhibitor, single point]

Q: Which Potency does the source give for Cn1c(=O)c2c(nc(Br)n2Cc2ccccc2Cl)n(C)c1=O here?
A: inconclusive: 10 µM [inhibitor, partial curve]

Q: Which Potency does the source give for COc1ccc(O)c(C(=O)c2cnn(S(=O)(=O)c3ccc(C)cc3)c2)c1 here?
A: inactive

Q: With Brc1ccc(C2=Nc3ccccc3C(c3ccncc3)=NN2)cc1 as the compound, how does the Potency read?
A: inconclusive: 31.6 µM [inhibitor, partial curve]

Q: For CCOC(=O)C1CCN(C(=O)CCc2nnc3ccc(N4CCN(C)CC4)nn23)CC1, which Potency is on record?
A: inactive

Q: For CCC(=O)OC1(C)C(=O)C=C2C=C(c3ccsc3)OC=C2C1=O (stereo not drawn), which Potency is on record?
A: inactive

Q: Which Potency does the source give for C=CC[C@@H](CC(=O)N[C@H](CO)Cc1ccccc1)C(=O)N[C@@H](COC(=O)[C@@H](CC=C)CC(=O)OC(C)(C)C)Cc1ccccc1 here?
A: inactive

Q: Which Potency does the source give for CCCCc1ccc(NC(=S)N2CCN(c3ncccn3)CC2)cc1 here?
A: inconclusive: 14.1 µM [inhibitor, single point]

Q: For CC(C)c1ccc(NC(=O)C(=O)c2cn(CC(=O)N3CCCCC3)c3ccccc23)cc1, which Potency is on record?
A: inconclusive: 2.82 µM [inhibitor, full curve]

Q: For O=C(CN1CCCCC1)Nc1ccc(S(=O)(=O)c2ccc(NC(=O)CN3CCCCC3)cc2)cc1, which Potency is on record?
A: inconclusive: 10 µM [inhibitor, partial curve]

Q: With COC(=O)Cc1csc(Nc2ccccc2Cl)n1 as the compound, how does the Potency read?
A: inactive

Q: For COc1ccc(C)cc1COC(=O)c1[nH]c(C)c(C(C)=O)c1C, which Potency is on record?
A: inconclusive: 15.8 µM [inhibitor, partial curve, poor fit]

Q: For COC(=O)C(O)(c1ccc(NC(=S)NC(=O)c2ccc(Cl)cc2Cl)c(C)c1)C(F)(F)F (stereo not drawn), which Potency is on record?
A: inconclusive: 7.08 µM [inhibitor, full curve]

Q: With Cc1ccc(-n2c(O)c(C=NC3CCS(=O)(=O)C3)c3ccccc3c2=O)cc1C (stereo not drawn) as the compound, how does the Potency read?
A: inconclusive: 0.501 µM [inhibitor, partial curve, poor fit]

Q: Which Potency does the source give for Cc1ccc(S(=O)(=O)N2CCC(C(=O)OCC(=O)N3CC(C)CC(C)C3)CC2)cc1C (stereo not drawn) here?
A: inconclusive: 0.501 µM [inhibitor, partial curve, poor fit]

Q: Which Potency does the source give for O=C(N/N=C/C=C/c1ccccc1)c1cccs1 here?
A: inactive

Q: For CCN1C(=O)[C@@H]2[C@@H](c3ccc(-c4ccc(OC)cc4)cc3)N3CCC[C@@]3(C(=O)OC)[C@@H]2C1=O, which Potency is on record?
A: inconclusive: 31.6 µM [inhibitor, single point]

Q: Which Potency does the source give for CCCCCCC(O)(CCN1CCCCC1)c1ccccc1 (stereo not drawn) here?
A: inconclusive: 11.2 µM [inhibitor, partial curve]

Q: With CCN(CC)C(=O)CSc1nc2ccc(NC(=O)CSc3nccn3C)cc2s1 as the compound, how does the Potency read?
A: inconclusive: 10 µM [inhibitor, partial curve]

Q: For CC(=O)N1CCCC1(C(=O)O)c1ccccc1 (stereo not drawn), which Potency is on record?
A: inactive

Q: Which Potency does the source give for COc1ccc(CNc2ccc3c(c2)ncn3-c2ccccc2OC)cc1 here?
A: inconclusive: 15.8 µM [inhibitor, single point]

Q: With CCOc1ccc(S(=O)(=O)NCC2CCCO2)c2ccccc12 (stereo not drawn) as the compound, how does the Potency read?
A: inconclusive: 11.2 µM [inhibitor, single point]

Q: For O=C1C=C(c2ccc3[nH]ccc3c2)CCC1, which Potency is on record?
A: inconclusive: 35.5 µM [inhibitor, single point]

Q: With C=C(C)CNC(=S)N/N=C/c1ccco1 as the compound, how does the Potency read?
A: inactive

Q: Which Potency does the source give for Cc1cc(C)c2c(CN3CCOCC3)cc(=O)oc2c1 here?
A: inactive

Q: Which Potency does the source give for Cn1c(COc2ccccc2)nnc1SCCSc1nnc(COc2ccccc2)n1C here?
A: inactive and inconclusive: 501 nM [inhibitor, full curve, poor fit]

Q: With Cc1ccccc1NC(=O)CSc1nc2ccccc2c2nc(CCn3cncc3C)nn12 as the compound, how does the Potency read?
A: inconclusive: 4.47 µM [inhibitor, partial curve]

Q: Which Potency does the source give for Cn1c2ccccc2c2nn(-c3ccccc3)c(=O)cc21 here?
A: inactive

Q: Which Potency does the source give for CCNc1ccc(C(=O)O)cc1N here?
A: inconclusive: 5.62 µM [inhibitor, single point]

Q: With O=C(NC(=S)NC(c1ccccc1)c1ccncc1)c1ccccc1 (stereo not drawn) as the compound, how does the Potency read?
A: inconclusive: 31.6 µM [inhibitor, single point]

Q: Which Potency does the source give for Cc1ccc(C)c(NC(=O)C(Sc2nnc(-c3cccs3)o2)c2ccccc2)c1 (stereo not drawn) here?
A: inactive

Q: Which Potency does the source give for CC1CCN(CCOCCOc2ccccc2-c2ccccc2)CC1 here?
A: inconclusive: 11.2 µM [inhibitor, single point]

Q: For CC(=O)c1c(C)[nH]c(C(=O)OCc2nc3ccsc3c(=O)[nH]2)c1C, which Potency is on record?
A: inconclusive: 31.6 µM [inhibitor, single point]

Q: With COc1ccc(C(=O)CSc2nnc(CNC(=O)c3ccccc3F)n2C)cc1OC as the compound, how does the Potency read?
A: inactive

Q: With c1csc(-c2cc(N3CCCCC3)c3ccccc3n2)c1 as the compound, how does the Potency read?
A: inconclusive: 31.6 µM [inhibitor, single point]

Q: Which Potency does the source give for COc1ccc(-c2csc(NC(=O)C3=COCCO3)n2)c(OC)c1 here?
A: inconclusive: 14.1 µM [inhibitor, single point]

Q: For COc1ccc(-c2c(-c3cc(OC)cc(OC)c3)n(C)c3ccc(-c4ccc5[nH]ccc5c4)cc23)cc1, which Potency is on record?
A: inconclusive: 31.6 µM [inhibitor, single point]

Q: For NC(=O)CC(NC(=O)c1ccc(Br)cc1)c1ccc(NCc2ccc(F)cc2)c([N+](=O)[O-])c1 (stereo not drawn), which Potency is on record?
A: inconclusive: 0.501 µM [inhibitor, full curve, poor fit]

Q: Which Potency does the source give for Cc1ccc(-c2noc(-c3ccccc3C(=O)NCc3ccco3)n2)cc1 here?
A: inconclusive: 35.5 µM [inhibitor, single point]

Q: With CCc1nnc(NC(=O)C2c3ccccc3Oc3ccccc32)s1 as the compound, how does the Potency read?
A: inconclusive: 14.1 µM [inhibitor, partial curve]

Q: Which Potency does the source give for COc1ccc(NC(=O)Cc2cccc(F)c2)cc1S(=O)(=O)Nc1ccccc1Cl here?
A: inconclusive: 15.8 µM [inhibitor, partial curve]

Q: With COc1ccc(CN2C(=O)CN(C3CCCCCC3)C(=O)C2c2ccc(F)cc2)cc1 (stereo not drawn) as the compound, how does the Potency read?
A: inconclusive: 31.6 µM [inhibitor, single point]

Q: For CN(c1ccccc1)S(=O)(=O)c1cccc(NC(=O)c2cccc(C#N)c2)c1, which Potency is on record?
A: active: 10 µM

Q: With Cc1cc(NC(=O)c2ccc(COc3ccccc3Cl)o2)no1 as the compound, how does the Potency read?
A: inconclusive: 10 µM [inhibitor, partial curve]

Q: With CCc1ccc(/C=C2\Oc3ccc(C(=O)OC)cc3C2=O)cc1 as the compound, how does the Potency read?
A: inactive

Q: For CCN1CCCC1CNC(=O)c1cc2c(C)nc3ccccc3c2o1 (stereo not drawn), which Potency is on record?
A: inconclusive: 31.6 µM [inhibitor, single point]

Q: Which Potency does the source give for COc1ccc(N=C2SC(CC(=O)Nc3ccccc3)C(=O)N2Cc2ccccn2)cc1 (stereo not drawn) here?
A: inconclusive: 31.6 µM [inhibitor, single point]

Q: For COc1ccc(C(=O)Nc2cc3c(cc2N2CCCCC2)n(C)c(=O)n3C)cc1OC, which Potency is on record?
A: inconclusive: 0.355 µM [inhibitor, full curve, poor fit]

Q: Which Potency does the source give for CCN(c1cccc(C)c1)S(=O)(=O)c1cc(CN2C(=O)c3cccnc3C2=O)ccc1OC here?
A: inactive

Q: Which Potency does the source give for Cc1ccc2[nH]c(=O)c(CN(Cc3ccc4c(c3)OCO4)Cc3nnnn3C3CCCC3)cc2c1 here?
A: inconclusive: 11.2 µM [inhibitor, single point]

Q: Which Potency does the source give for CCOc1ccc(NC(=O)C2CCN(S(=O)(=O)c3cccs3)CC2)cc1 here?
A: inconclusive: 7.94 µM [inhibitor, partial curve]

Q: For Cc1cccc(C)c1OCC(=O)N(Cc1ccc(N(C)C)cc1)C1CCS(=O)(=O)C1 (stereo not drawn), which Potency is on record?
A: inactive

Q: For Cc1ccc(-c2nc(CS(=O)(=O)CC(=O)NC3CCC(C)CC3)c(C)o2)cc1 (stereo not drawn), which Potency is on record?
A: inconclusive: 11.2 µM [inhibitor, single point]

Q: With CCOC(=O)Cc1csc(NC(=O)c2ccc(S(=O)(=O)N3CCOCC3)cc2)n1 as the compound, how does the Potency read?
A: inconclusive: 12.6 µM [inhibitor, single point]

Q: Which Potency does the source give for O=S(=O)(NCc1c(Cl)cccc1Oc1ccccc1)c1ccc(F)cc1 here?
A: inactive

Q: With O=C(Nc1ccccc1N1CCOCC1)c1ccc(Br)o1 as the compound, how does the Potency read?
A: inconclusive: 10 µM [inhibitor, single point]

Q: For COc1ccc(-n2nc3cc(N)c(Br)cc3n2)cc1, which Potency is on record?
A: inconclusive: 3.98 µM [inhibitor, full curve]

Q: Which Potency does the source give for CCCCCC(=C/c1ccccc1)/C=N/Nc1ccc(S(=O)(=O)N2CCOCC2)cc1[N+](=O)[O-] here?
A: inconclusive: 31.6 µM [inhibitor, single point]

Q: Which Potency does the source give for CC(C)CNC(=O)c1c(N)n(/N=C/c2cccnc2)c2nc3ccccc3nc12 here?
A: inactive

Q: For Cc1cc(C)c(C#N)c(SCS(=O)Cc2ccccc2)n1 (stereo not drawn), which Potency is on record?
A: inconclusive: 31.6 µM [inhibitor, single point]

Q: With CCOc1ccc(CCNC(=O)CS(=O)(=O)Cc2nc(-c3ccc(OC)cc3)oc2C)cc1 as the compound, how does the Potency read?
A: inactive

Q: For Cc1cccc2sc(NC(=O)c3ccc(Cl)s3)nc12, which Potency is on record?
A: active: 10 µM
